# Experimental data published in the supplement of paper PMC3334620.
# Over roughly 33,000 sequences, “E-score (-0.5 to 0.5)” has its median near -0.012; the highest 2% begin near 0.29. This is one part of the list.
# Target: T1, Ybr033w (UniProt P38073)
# T1 sequence: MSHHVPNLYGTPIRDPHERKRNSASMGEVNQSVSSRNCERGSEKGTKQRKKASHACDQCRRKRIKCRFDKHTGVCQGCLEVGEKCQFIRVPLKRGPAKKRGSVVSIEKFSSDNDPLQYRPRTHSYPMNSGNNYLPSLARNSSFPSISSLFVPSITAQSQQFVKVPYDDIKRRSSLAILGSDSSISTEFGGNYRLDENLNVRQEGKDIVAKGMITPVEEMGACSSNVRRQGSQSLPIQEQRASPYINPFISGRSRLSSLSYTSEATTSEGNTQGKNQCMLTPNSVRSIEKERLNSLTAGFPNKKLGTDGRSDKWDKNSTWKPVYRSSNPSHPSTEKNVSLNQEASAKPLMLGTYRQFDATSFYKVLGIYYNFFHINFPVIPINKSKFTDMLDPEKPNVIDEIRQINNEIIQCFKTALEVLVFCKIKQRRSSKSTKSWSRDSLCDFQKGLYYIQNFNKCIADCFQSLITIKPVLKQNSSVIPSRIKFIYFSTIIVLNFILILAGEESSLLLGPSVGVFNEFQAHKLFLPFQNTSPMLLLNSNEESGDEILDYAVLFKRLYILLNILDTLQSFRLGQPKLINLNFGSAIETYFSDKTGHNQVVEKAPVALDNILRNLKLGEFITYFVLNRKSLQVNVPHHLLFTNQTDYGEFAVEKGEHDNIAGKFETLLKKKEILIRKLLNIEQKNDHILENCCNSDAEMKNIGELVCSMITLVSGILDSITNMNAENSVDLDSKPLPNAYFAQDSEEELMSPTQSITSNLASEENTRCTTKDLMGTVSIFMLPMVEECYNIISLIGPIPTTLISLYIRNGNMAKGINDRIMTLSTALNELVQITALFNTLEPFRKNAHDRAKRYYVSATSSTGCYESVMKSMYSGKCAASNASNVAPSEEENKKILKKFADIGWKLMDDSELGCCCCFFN
# Experiment: PBM E-score (8-mer binding enrichment) (E-score (-0.5 to 0.5)); higher = stronger / more preferred TF binding; most listed sequences are background and not binding sites
# Conditions: protein concentration: 200 nM; construct: GST-full length
# Outline: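 Yeast transcription factors, full-length or as DNA-binding domains, were expressed with a GST tag using PURExpress in vitro transcription/translation. At about 100-200 nM they were applied to universal all-10-mer Agilent arrays, double-stranded by primer extension on fresh or once-stripped slides. Fluorescent anti-GST detected bound protein, and masliner normalised the scans. E-scores for ungapped eight-base words, pooled with reverse complements, came from the Universal PBM Analysis Suite.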
row,Sequence,PBM E-score
1,ACCGCCGT,-0.154
2,GATCTGCC,-0.18
3,AAAGAATC,0.00391
4,GAGCAGCA,-0.0932
5,ACAGCAAT,0.192
6,CCGTTCCC,-0.227
7,ATACGATC,0.0365
8,AGAGCTAG,-0.141
9,CTAGAGGA,-0.102
10,GTAGTCAC,-0.156
11,AAGGGGTG,-0.332
12,CGCTACTC,0.108
13,ACTTCGAT,0.0816
14,AGTGTAGC,0.12
15,GCCTGCAA,-0.119
16,AATGTGCA,0.0839
17,GGAGTGCA,-0.0904
18,GTAAATAC,0.166
19,AGTGAGCG,0.0395
20,AAGCAAGC,0.0236
21,AAGTTTCC,0.186
22,TTGCGAAA,0.275

row,Sequence,PBM E-score
1,GAAAAGTA,0.171
2,AGCATGGG,-0.172
3,GAATGAGA,0.0873
4,AACAAATT,0.374
5,CTTTCTTC,0.0146
6,CGATGTAG,-0.106
7,GGAACATA,0.313
8,CTAACGGA,0.136
9,AGAAATAC,0.104
10,AGGATACG,-0.15
11,AGCTAGTA,0.17
12,CTTCAAAC,-0.136
13,GCGATGAA,-0.0988
14,AGCTAGCT,0.0325
15,AGTATTTA,0.301
16,CTGAAACA,0.145
17,ATGGTAGA,0.172
18,GAGGAGGC,-0.296
19,AACACGGT,0.07
20,CTTAAACC,0.119
21,GACAATCA,0.0041
22,CACGTGGC,-0.295

row,Sequence,PBM E-score
1,CCTGTTTA,-0.164
2,CGAGTAAG,0.226
3,GGCCCACA,-0.126
4,GGACCACC,0.029
5,CGATGAAC,-0.00159
6,ACAAGTGG,0.00473
7,AGGCGGTC,-0.231
8,CCTCGCGA,-0.164
9,ATCCGTAC,0.109
10,ACATGCAA,0.0151
11,ACCGAATC,-0.0298
12,ACAAGCGC,-0.145
13,CTGCCACC,-0.303
14,CGGCTCAG,-0.101
15,CATGATAA,0.152
16,TGTAGACA,0.149
17,ATCGTGTA,0.0262
18,CTCGGAAC,0.113
19,ACGCATAG,-0.00897
20,CTGTTCTA,-0.094
21,GCATGTCC,-0.206
22,ACGCATCT,0.00301

row,Sequence,PBM E-score
1,CAGTCGCA,-0.102
2,TATTACGA,0.297
3,CCTCGTTC,-0.0908
4,AATCCCAA,0.0668
5,ATCAAACA,0.227
6,ATATTGAT,0.39
7,CGGGGCCA,-0.159
8,CACACCTA,0.166
9,ACGCATAT,-0.0358
10,CAATTATG,0.08
11,ACTGGCAT,-0.0492
12,AGGTACTG,0.048
13,GGGACCAC,-0.201
14,AGCCGATG,-0.00654
15,AAATTAAC,0.251
16,ACGGAGAT,-0.0576
17,ATTAGACA,0.183
18,TTTCGAAA,0.227
19,GTCGCTAA,0.0848
20,ATATTATG,0.315
